Where two headings read alike, the source gives them in different places. No constants are given. Whether binding was seen depends on the method and setting. Binding seen in cells or lysates may run through a third protein. Some binding calls cover weakened binding; strength is not graded here. For some assays here: Sequences can lack the tags named with a protein.
Experiments:
[1] = target: T1, Clb5-HA3 (S. cerevisiae) (UniProt P30283); experiment: co-IP; HA3-tagged bait precipitated with anti-HA magnetic matrix from extracts of exponentially growing or rapamycin-treated yeast cells (also mpk1Δ, cdc55Δ genotypes in Figure 4a); lysis buffer 50 mM TRIS pH 7.5, 1 mM EDTA, 150 mM NaCl, 0.5% NP40; immunoblot with anti-HA, anti-Sic1 or anti-myc
T1 sequence: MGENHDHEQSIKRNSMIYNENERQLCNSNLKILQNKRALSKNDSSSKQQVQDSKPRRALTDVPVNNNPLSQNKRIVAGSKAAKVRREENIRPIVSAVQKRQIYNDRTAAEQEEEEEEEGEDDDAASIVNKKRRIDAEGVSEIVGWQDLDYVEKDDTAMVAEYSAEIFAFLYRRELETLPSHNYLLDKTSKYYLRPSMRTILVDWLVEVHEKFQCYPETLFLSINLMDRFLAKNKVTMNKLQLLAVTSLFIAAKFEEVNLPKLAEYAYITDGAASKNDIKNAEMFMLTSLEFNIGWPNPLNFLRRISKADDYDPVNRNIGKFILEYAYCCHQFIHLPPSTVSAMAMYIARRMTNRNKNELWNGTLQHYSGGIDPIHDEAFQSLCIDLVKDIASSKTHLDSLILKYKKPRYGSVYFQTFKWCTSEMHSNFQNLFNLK

The chains behind the UniProt entries cited, without tags or fusion partners. Where a name states a change or a piece, a line headed by the entry shows the natural chain unless it says otherwise. A line that says so, or that is headed by a name, gives the form on record, which may keep a tag or linker. Residues count along the entry.
UniProt P43565: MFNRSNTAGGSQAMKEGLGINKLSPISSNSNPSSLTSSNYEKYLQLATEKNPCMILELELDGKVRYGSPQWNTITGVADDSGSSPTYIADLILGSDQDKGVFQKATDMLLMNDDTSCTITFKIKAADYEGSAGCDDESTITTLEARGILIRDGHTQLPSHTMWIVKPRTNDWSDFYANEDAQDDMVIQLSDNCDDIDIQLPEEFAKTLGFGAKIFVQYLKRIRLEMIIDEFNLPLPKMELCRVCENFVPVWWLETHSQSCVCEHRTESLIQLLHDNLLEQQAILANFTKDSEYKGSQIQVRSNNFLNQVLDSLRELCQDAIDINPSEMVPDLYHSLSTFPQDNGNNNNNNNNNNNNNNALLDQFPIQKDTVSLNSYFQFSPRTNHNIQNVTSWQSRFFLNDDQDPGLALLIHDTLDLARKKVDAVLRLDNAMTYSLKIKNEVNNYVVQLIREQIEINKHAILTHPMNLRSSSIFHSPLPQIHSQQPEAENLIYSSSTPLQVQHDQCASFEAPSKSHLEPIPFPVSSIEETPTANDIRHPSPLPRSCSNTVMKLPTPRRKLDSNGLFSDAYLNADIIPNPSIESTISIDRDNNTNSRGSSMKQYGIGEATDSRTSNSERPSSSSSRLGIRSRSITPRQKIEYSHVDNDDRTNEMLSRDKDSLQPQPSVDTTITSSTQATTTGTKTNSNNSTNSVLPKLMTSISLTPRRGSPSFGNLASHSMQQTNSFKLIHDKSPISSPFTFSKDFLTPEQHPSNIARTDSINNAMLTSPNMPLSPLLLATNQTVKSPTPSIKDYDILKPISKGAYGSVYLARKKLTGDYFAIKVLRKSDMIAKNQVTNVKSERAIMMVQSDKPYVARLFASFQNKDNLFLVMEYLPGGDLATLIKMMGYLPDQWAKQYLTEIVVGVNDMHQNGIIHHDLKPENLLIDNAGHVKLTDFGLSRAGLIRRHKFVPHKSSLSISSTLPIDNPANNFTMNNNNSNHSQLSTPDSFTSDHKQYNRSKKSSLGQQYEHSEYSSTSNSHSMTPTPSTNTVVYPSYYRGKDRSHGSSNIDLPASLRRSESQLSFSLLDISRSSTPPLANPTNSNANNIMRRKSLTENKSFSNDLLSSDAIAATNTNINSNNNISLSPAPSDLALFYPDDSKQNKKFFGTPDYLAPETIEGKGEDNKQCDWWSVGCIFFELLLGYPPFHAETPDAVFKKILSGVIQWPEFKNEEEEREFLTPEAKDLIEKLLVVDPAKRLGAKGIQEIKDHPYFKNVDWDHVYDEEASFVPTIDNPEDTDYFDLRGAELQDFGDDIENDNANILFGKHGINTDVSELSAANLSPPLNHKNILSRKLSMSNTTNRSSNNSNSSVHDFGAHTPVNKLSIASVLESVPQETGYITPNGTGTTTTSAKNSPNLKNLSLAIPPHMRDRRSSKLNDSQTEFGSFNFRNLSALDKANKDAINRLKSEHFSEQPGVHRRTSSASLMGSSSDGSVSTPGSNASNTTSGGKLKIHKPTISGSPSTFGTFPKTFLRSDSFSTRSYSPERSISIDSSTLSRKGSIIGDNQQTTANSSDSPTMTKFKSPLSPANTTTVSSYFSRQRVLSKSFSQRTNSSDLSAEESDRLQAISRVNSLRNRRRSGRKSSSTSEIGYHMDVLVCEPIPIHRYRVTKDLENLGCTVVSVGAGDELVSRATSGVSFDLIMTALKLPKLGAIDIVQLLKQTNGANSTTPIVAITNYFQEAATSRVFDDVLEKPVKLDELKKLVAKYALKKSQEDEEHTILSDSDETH
Sic1^150-285-myc13 (P38634, residues 150-284): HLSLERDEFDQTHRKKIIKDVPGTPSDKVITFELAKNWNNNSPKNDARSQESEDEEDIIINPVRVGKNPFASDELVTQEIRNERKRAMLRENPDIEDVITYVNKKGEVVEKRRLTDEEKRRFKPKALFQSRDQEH
Sic1-myc13 (P38634, form named): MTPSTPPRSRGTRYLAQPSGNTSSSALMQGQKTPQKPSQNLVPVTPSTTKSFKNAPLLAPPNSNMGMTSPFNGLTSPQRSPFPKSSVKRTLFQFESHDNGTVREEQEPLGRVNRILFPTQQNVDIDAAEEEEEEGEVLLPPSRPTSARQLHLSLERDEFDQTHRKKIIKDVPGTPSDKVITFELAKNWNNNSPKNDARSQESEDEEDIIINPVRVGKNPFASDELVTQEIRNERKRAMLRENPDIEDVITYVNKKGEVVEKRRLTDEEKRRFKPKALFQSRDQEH
Sic1^150-285-myc13 (T173A) (P38634, form named): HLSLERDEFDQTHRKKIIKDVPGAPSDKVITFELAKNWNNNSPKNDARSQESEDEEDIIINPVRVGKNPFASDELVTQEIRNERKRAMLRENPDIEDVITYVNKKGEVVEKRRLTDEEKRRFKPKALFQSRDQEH
Sic1^T173A-myc13 (P38634, form named): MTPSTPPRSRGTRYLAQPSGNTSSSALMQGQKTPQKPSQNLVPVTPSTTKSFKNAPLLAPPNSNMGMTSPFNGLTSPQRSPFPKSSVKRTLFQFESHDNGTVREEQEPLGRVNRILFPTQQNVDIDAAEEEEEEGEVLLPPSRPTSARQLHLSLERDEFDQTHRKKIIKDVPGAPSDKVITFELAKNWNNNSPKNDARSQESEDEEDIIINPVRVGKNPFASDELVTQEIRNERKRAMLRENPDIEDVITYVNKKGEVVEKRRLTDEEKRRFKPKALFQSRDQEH

[2] = target: T2, Cln2-HA3 (S. cerevisiae) (UniProt P20438); experiment: as above
T2 sequence: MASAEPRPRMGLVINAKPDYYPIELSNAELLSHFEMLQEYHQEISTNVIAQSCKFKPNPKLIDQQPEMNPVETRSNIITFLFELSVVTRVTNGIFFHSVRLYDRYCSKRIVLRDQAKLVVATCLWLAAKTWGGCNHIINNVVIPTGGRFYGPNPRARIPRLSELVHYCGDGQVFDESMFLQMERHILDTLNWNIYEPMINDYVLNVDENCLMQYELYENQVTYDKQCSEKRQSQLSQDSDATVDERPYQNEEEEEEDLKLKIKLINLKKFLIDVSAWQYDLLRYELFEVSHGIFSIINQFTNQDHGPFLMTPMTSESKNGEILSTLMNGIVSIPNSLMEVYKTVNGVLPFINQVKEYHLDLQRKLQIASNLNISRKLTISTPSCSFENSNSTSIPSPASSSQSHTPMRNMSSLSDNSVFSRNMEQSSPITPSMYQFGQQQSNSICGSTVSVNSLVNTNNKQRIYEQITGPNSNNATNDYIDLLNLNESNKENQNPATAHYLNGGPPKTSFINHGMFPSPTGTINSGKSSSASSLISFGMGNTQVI

[3] = target: T3, Cks1-HA3 (S. cerevisiae) (UniProt P20486); experiment: as above
T3 sequence: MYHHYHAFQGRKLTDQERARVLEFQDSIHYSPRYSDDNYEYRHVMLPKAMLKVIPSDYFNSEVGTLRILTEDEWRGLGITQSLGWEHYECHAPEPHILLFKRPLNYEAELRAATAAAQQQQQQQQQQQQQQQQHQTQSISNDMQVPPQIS

[4] = target: T3, Cks1-HA3 (S. cerevisiae); experiment: as above; remark: listed apart in the source
[5] = target: T4, Cln2-myc13 (S. cerevisiae) (UniProt P20438); experiment: co-IP; Figure 3e: extracts of rapamycin-treated (30 min) WT or sic1^T173A cells with Cln2-myc13 and Cks1-HA3; the legend says Cln2-myc13 was IPed but also IP: anti-HA; immunoblot with anti-myc and anti-HA
T4 sequence: T2 sequence

[6] = target: GST-Rim15 (S. cerevisiae) (UniProt P43565); experiment: pull-down; plasmid-encoded GST-Rim15 pulled down with glutathione-sepharose beads from extracts of untreated and rapamycin-treated (1 h) rim15Δ cells that co-expressed the HA3-tagged protein; immunoblot with anti-HA and anti-GST

In the case of Sic1 (from UniProt P38634 1-284), the binding [1] is reported as “binds”, the binding [2] is reported as “no binding” and the binding [3] is reported as “binds”.

For Sic1-myc13 (from UniProt P38634 1-284), the binding [1] was “binds”.

“Sic1^150-285-myc13 (T173A) (from UniProt P38634 150-284) (domain or fragment)” was tested, and the binding [3] was “no binding”.

In the case of “Sic1^150-285-myc13 (from UniProt P38634 150-284) (domain or fragment)”, the binding [3] is reported as “binds”.

For Sic1^T173A (from UniProt P38634 1-284), the binding [1] was “binds” and the binding [2] was “no binding”.

For “Sic1^T173A-myc13 (from UniProt P38634 1-284)”, the binding [1] was “binds”.

B1: Clb5-myc13 (protein, UniProt P30283 1-435)
chain: T1 sequence
With B1 the binding [4] was “binds”.

B2: Cks1-HA3 (protein, UniProt P20486 1-150)
chain: T3 sequence
In the case of B2, the binding [5] is reported as “binds”.

B3: Cln2-HA3 (protein, UniProt P20438 1-545)
chain: T2 sequence
In the case of B3, the binding [6] is reported as “binds”.

B4: Clb5-HA3 (protein, UniProt P30283 1-435)
chain: T1 sequence
B4 was tested, and the binding [6] was “no binding”.

B5: Lst7-HA3 (protein, UniProt P53237 1-242)
chain: MSSTVISLAHFCDKHGPRIISVTQSAEKGTLGEELLVPDYPTESYCESCLLQFPEESTRSMRCFIEDVPFITTQYSSIRYQLLNSIIKRAFSEETMIYDNMPFIFFDDLRGLNLVIGFKLYDENARGNERRYCFILTVDSRSHDDSMKMLSEHWNFIIGGFDKMIAYIKNIHKSEFLGKNKTVENNLETLNNNAFIGSYLRANKSKFGRNLVSLTDDKFLFVRIHKWNSFLLHTVMNENKLP
In the case of B5, the binding [6] is reported as “no binding”.

From publication PMC5412858
